# Results published in PubChem BioAssay AID540267 (National Center for Advancing Translational Sciences (NCATS), 2011).
# The whole screen tested about 340,000 compounds, of which about 530 (0.16%) were called active. Inconclusive results, whose numbers are uncertain, are shown with a selection of clear calls. Cut-off read from the data, not from the text of the source: active = activity change below about -80%; inconclusive = between about -30% and that limit; inactive = weaker than that.
# Test: Small Molecules that selectively kill Giardia lamblia: qHTS;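 note: parasites exposed to compound for two days anaerobically before the ATP read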
# Conditions: Giardia lamblia trophozoite viability; at 7.66 µM; hits give low values
# Procedure, shortened: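 Each well holds 100 Giardia trophozoites and compound. After two days (48 hrs) at 37 deg C in anaerobic conditions, ATP is quantified by luminescence.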
# % is set by controls: 0 for no effect and ±100 for the full control effect.
row,SMILES,activity change
1,CC(=O)c1c(C)oc2ccc(N(C(C)=O)S(=O)(=O)c3cccc([N+](=O)[O-])c3)cc12,inconclusive: -30.5% [inhibitor]
2,Cc1nnc2c(N3CCN(CCO)CC3)nc3ccccc3n12,inconclusive: -31.5% [inhibitor]
3,Cc1cc(C)c(OCC(=O)OC(C)C(=O)N2CCc3ccccc32)c(C)c1 (stereo unspecified),inconclusive: -33% [inhibitor]
4,O=C(Cc1cccs1)N/N=C\c1ccc([N+](=O)[O-])s1,active: -85%
5,COc1ccc(C(C#N)c2nc3ccccc3nc2Cl)cc1 (stereo unspecified),inconclusive: -31.8% [inhibitor]
6,Cc1cnc(=O)[nH]c1SCC(=O)c1ccc(F)cc1,inactive: 2.33%
7,Oc1ccccc1N=N/C(=N/Nc1ccccc1O)c1ccccc1,inconclusive: -38.4% [inhibitor]
8,N#Cc1c(NC2CCCCC2)nc(-c2ccco2)c2c1CCCC2,inconclusive: -36.6% [inhibitor]
9,CCc1nnc(NC(=O)CSc2nnc(Cc3cc(=O)[nH]c(=O)[nH]3)n2-c2ccc(OC)cc2)s1,inconclusive: -36.6% [inhibitor]
10,COc1cc(Cl)c(C)cc1NC(=O)c1ccccc1NC(=O)CN1CCN(c2ccccn2)CC1,inactive: 37.5%
11,COc1cc(/C=C2/SC(=O)NC2=O)ccc1Oc1ccc([N+](=O)[O-])cc1[N+](=O)[O-],inconclusive: -33.3% [inhibitor]
12,O=[N+]([O-])c1nn(-c2ccc3c(c2)OCCO3)n(O)c1=NC1CCN(Cc2ccccc2)CC1,active: -82.3%
13,O=C(COc1cccnc1[N+](=O)[O-])c1c[nH]c2ccccc12,inconclusive: -71.9% [inhibitor]
14,CC(C)(C)C1CCC(OC(=O)c2cncc(Br)c2)CC1 (stereo unspecified),inconclusive: -39% [inhibitor]
15,COC(=O)c1ccc(OCC(O)CN2CCN(C(=O)c3ccco3)CC2)cc1 (stereo unspecified),inconclusive: -36.3% [inhibitor]
16,O=C(c1cc2cc(F)ccc2[nH]1)N1CCCC(Nc2ccc(F)cc2)C1 (stereo unspecified),inactive: -0.847%
17,CCOC(=O)N1CCN(C(=O)c2ccc(Cl)c(NC(=O)c3cccs3)c2)CC1,inconclusive: -48.3% [inhibitor]
18,COCCNC(=O)c1ccc2c3n(nc2c1)-c1ccccc1CO3,inconclusive: -43.5% [inhibitor]
19,C=CC[C@@H](CC(=O)N[C@H](CO)Cc1ccccc1)C(=O)N[C@@H](COC(=O)[C@@H](CC=C)Cc1ccc(F)cc1)Cc1c[nH]c2ccccc12,inconclusive: -37.7% [inhibitor]
20,COc1ccc(/C=C/C(=O)c2ccc3c(c2)OCO3)c(OC)c1,inconclusive: -35.8% [inhibitor]
21,Cc1nnn(C23CC4CC(CC(CC(=O)Nc5ccc(C)c(Cl)c5)(C4)C2)C3)n1,inactive: 14.8%
22,CCn1nc(-c2ccccc2C)nc2c(=O)n(C)c(=O)nc1-2,active: -92.6%
23,CC(C)(C)OC(=O)N1CCC(CNC(=O)c2ccccc2)CC1,inconclusive: -32% [inhibitor]
24,Cc1[nH]c2ccc(C(=O)N3CCCC3)cc2c1C,inconclusive: -33.3% [inhibitor]
25,CCC(C)OC(=O)C1=C(C)NC(=O)CC1c1ccccc1OC (stereo unspecified),inconclusive: -31% [inhibitor]
26,CC1(C)O[C@@H]2C[C@H]3[C@@H]4C[C@H](F)C5=CC(=O)C=C[C@]5(C)[C@H]4[C@@H](O)C[C@]3(C)[C@]2(C(=O)CO)O1,inconclusive: -41.6% [inhibitor]

row,SMILES,activity change
1,O=S(=O)(Nc1cc(Cl)cc(Cl)c1)N1CCOCC1,inconclusive: -34% [inhibitor]
2,C=CCCC(=O)Nc1nc(C)c(-c2csc(Nc3ccc(Cl)cc3)n2)s1,inconclusive: -30.5% [inhibitor]
3,CCOc1ccc(-n2nnnc2SCC(=O)NNC(=O)c2ccco2)cc1,inactive: -14.4%
4,O=C(c1ccccc1F)N(NC(=O)C(O)(c1ccccc1)c1ccccc1)c1ccccc1,inconclusive: -30.3% [inhibitor]
5,C=CCn1c(SCC(=O)Nc2ccc(N3CCOCC3)cc2)nnc1-c1ccncc1,inactive: -12.2%
6,CCOc1cc(/C=C2\C(=O)N(CCc3ccc(OC)c(OC)c3)C(C)=C2C(=O)OC)ccc1O,inactive: 5.53%
7,C[C@@H]1CC=C[C@H]2[C@H]1C(=O)N(Cc1ccccc1)[C@H]2c1ccc(-c2ccoc2)cc1F,inactive: -18.5%
8,CCOC(=O)c1ccc(NC(=O)c2ccco2)cc1,inconclusive: -33.2% [inhibitor]
9,O=C(O)c1ccc(CNc2ccccc2C(=O)O)cc1,inactive: -2.33%
10,O=C(NCCO)/C(=C\c1ccc([N+](=O)[O-])o1)NC(=O)c1ccccc1,inconclusive: -37.6% [inhibitor]
11,CCn1c(CNc2ccc(Cl)cc2)nnc1SCC#N,inconclusive: -37.3% [inhibitor]
12,Nc1c(C(=O)Nc2ccc(F)cc2)sc2nc(-c3ccco3)ccc12,inactive: -0.326%
13,Cc1ccc(S(=O)(=O)N2CCCC2CNC(=O)C(=O)Nc2ccc(F)cc2F)cc1 (stereo unspecified),inactive: 6.75%
14,COC(=O)c1[nH]c2cc(OC)ccc2c1NC(=O)CCN1CCN(c2cccc(C)c2C)CC1,inactive: -2.35%
15,Cc1ccccc1-c1nc(CS(=O)(=O)CC(=O)NCCCN2CCCC2=O)c(C)o1,inactive: 1.28%
16,CCCCc1nc2sc3c(SCCN(C)C)ncnc3c2c2c1CCC2,inconclusive: -30.1% [inhibitor]
17,O=[N+]([O-])c1ccc(OCCn2cncn2)cc1,inconclusive: -33.5% [inhibitor]
18,CCOC(=O)c1nc(N2CCN(C(=O)OCC)CC2)c2c3c(sc2n1)CCCC3,inactive: 5.49%
19,Cn1c(N)c(C(=O)CSc2n[nH]c(N)n2)c(=O)n(C)c1=O,inactive: 14.4%
20,Cc1cccc(NC(=O)c2ccc([N+](=O)[O-])s2)c1C,inconclusive: -71.5% [inhibitor]
21,Cc1ccnc(N2CCCC(C(=O)Nc3cccc(C)c3C)C2)n1 (stereo unspecified),inactive: 9.62%
22,O=S(=O)(Nc1cccc(-c2ccc(N3CCCCCC3)nn2)c1)c1ccccc1Cl,inconclusive: -30.2% [inhibitor]
23,O=C(O)COCC(=O)N1CCN(c2cc(C(F)(F)F)nc3ccccc23)CC1,inconclusive: -30.8% [inhibitor]
24,Cc1ccc2c(c1)c1nnc(SCC(=O)Nc3ccc(N(C)C)cc3)nc1n2CC(=O)O,inactive: 17.8%
25,COC(=O)c1sccc1NC(=O)Nc1cc(C)ccc1OC,inactive: -11.8%
26,O=C(NC1CCS(=O)(=O)C1)c1ccc(N2CCCCC2)c([N+](=O)[O-])c1 (stereo unspecified),inconclusive: -49.7% [inhibitor]

row,SMILES,activity change
1,NC(=O)c1ccccc1[N+](=O)[O-],inconclusive: -44.6% [inhibitor]
2,O=C(Nc1nc2cc3c(cc2s1)OCO3)C1=COCCO1,inconclusive: -74.6% [inhibitor]
3,O=C1S/C(=C\c2ccc(O)c([N+](=O)[O-])c2)C(=O)N1c1ccccc1Cl,inconclusive: -70.1% [inhibitor]
4,CCCn1nc(NC(=O)CC)c2cc3cccc(C)c3nc21,inconclusive: -33.2% [inhibitor]
5,Cc1ccc(S(=O)(=O)N2[C@@H](c3ccc(Cl)cc3)C(C(=O)O)=CC[C@H]2c2cccc(C)c2)cc1,inconclusive: -34.1% [inhibitor]
6,O=C(Nc1nccs1)c1cc2c(s1)CCCCC2,inconclusive: -54.3% [inhibitor]
7,O=C1CCc2cc(S(=O)(=O)NC3CCCCC3)cc3c2N1CC3,inconclusive: -44.3% [inhibitor]
8,COc1ccc2[nH]c3c(c2c1)CCN1C(=O)C(CC(=O)NCCCn2ccnc2)C[C@H](C(=O)N2CCCCC2)[C@@]31C (stereo partly specified),inconclusive: -30.5% [inhibitor]
9,O=C(NC1=NCCS1)c1cc2ccccc2o1,inconclusive: -37.2% [inhibitor]
10,COC(=O)CCCC1=CC2=C(c3ccccc3)C(=O)C(C)(OC(=O)C3CCCC3)C(=O)C2=CN1CC1CC1 (stereo unspecified),inactive: -13%
11,O=C1C(c2ccncc2)=C(O)c2ccccc21,inconclusive: -66.3% [inhibitor]
12,CC(=O)N1CCN(c2ccc(S(C)(=O)=O)cc2[N+](=O)[O-])CC1,inconclusive: -60.4% [inhibitor]
13,c1cncc(-c2nc(NCC3COc4ccccc4O3)c3ccccc3n2)c1 (stereo unspecified),inactive: -6.4%
14,CCO/N=C1\C(=O)N(c2ccccc2)c2ccccc21,inconclusive: -33.2% [inhibitor]
15,CCCS(=O)(=O)N1CCCC(C(=O)N2CCC(Cc3ccccc3)CC2)C1 (stereo unspecified),inactive: 13.1%
16,c1ccc2cc3c(NCCN4CCOCC4)ccnc3cc2c1,active: -97.2%
17,Cn1c(OCc2cccnc2)nc2c1c(=O)n(Cc1ccc(Br)cc1)c(=O)n2C,inactive: -4.07%
18,Cc1cc(-c2nnc(CCC(=O)NC(C)c3ccc(F)cc3)o2)no1 (stereo unspecified),inconclusive: -37.5% [inhibitor]
19,CCc1nn(CC(=O)N2CCN(c3ccc(OC)cc3)CC2)c(=O)c2cc3occc3n12,inconclusive: -32.1% [inhibitor]
20,COc1ccccc1C(=O)N/C(=C\c1cn(C)c2ccccc12)C(=O)N1CCCC1,inactive: 8.19%
21,Cc1ccccc1-n1c(SCC(=O)N/N=C/c2c(C)nn(-c3ccccc3)c2C)nc2ccccc2c1=O,inactive: 1.32%
22,Cc1ccc(C)c(OCC(=O)N/N=C\c2cccn2C)c1,inconclusive: -33.6% [inhibitor]
23,COc1cccc(OC)c1C(=O)Nc1ccc2nc(C)c(C)nc2c1,inconclusive: -35.5% [inhibitor]
24,Cc1ccc(/C=C/C(=O)C2C(=O)c3ccccc3C2=O)cc1,active: -86%
